Measured values published in US20190343860A1 (Saint Louis University, priority 2016, published 2019).
Read-outs that look alike come from different tables or passages of the source. At least one read-out could not be matched to a standard name with certainty.

Columns and labels:
[1] = target: T1, hA3AR (Homo sapiens, UniProt P0DMS8); conditions: species h; Ki values; tested in ref 26; read-out: Affinity (KD nm) A3; cited from earlier work
T1 construct: expressed in transfected cells
T1 sequence (P0DMS8 1-318): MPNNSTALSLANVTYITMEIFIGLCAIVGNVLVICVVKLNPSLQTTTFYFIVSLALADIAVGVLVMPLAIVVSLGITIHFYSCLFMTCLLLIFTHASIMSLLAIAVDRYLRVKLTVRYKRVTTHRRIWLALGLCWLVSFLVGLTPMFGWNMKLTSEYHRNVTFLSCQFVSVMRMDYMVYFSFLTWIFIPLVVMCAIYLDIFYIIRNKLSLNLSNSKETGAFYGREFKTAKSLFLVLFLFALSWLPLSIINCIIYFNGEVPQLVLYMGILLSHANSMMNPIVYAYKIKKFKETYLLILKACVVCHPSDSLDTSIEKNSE

[2] = target: T2, mA3AR (Mus musculus, UniProt Q61618); assay: Radioligand binding, membranes of HEK293 cells stably expressing mA3AR; conditions: species m; Ki values; read-out: Affinity (KD nm) A3
T2 construct: expressed in transfected cells
T2 sequence (Q61618 1-319): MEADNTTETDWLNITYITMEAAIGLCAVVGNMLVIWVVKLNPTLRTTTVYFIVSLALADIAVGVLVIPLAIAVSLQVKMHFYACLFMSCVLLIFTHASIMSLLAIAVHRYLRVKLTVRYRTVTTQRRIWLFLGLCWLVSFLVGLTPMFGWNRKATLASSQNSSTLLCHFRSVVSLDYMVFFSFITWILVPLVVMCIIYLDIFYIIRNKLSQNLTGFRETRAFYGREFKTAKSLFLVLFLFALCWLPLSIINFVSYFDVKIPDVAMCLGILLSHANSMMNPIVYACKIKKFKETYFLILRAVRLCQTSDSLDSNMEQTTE

[3] = target: T1, hA3AR; assay: Radioligand binding, membranes of CHO cells stably expressing hA3AR; conditions: species h; Ki values, radioligand [125I]N6-(4-amino-3-iodobenzyl)adenosine-5′-N-methyluronamide 42; read-out: Affinity (KD nm) A3
[4] = target: T3, mA1AR (Mus musculus, UniProt Q60612); assay: Radioligand binding, membranes of HEK293 cells stably expressing mA1AR; conditions: species m; Ki values; read-out: Affinity (KD nm) A1
T3 construct: expressed in transfected cells
T3 sequence (Q60612 1-326): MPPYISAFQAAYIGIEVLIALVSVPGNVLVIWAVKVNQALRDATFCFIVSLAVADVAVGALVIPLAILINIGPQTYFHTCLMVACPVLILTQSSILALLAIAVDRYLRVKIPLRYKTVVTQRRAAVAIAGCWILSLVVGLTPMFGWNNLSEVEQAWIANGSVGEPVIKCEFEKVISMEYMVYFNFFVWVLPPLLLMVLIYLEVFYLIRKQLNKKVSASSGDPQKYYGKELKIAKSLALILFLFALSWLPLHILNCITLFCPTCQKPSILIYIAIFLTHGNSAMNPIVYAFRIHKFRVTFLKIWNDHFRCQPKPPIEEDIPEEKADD

[5] = target: T4, hA2AAR (Homo sapiens, UniProt P29274); conditions: species h; Ki values; tested in ref 26; read-out: Affinity (KD nm) A2A; cited from earlier work
T4 construct: expressed in transfected cells

CNC(=O)[C@@]12C[C@@H]1[C@@H](n1cnc3c(NCc4cccc(Cl)c4)nc(C#Cc4ccccc4)nc31)[C@H](O)[C@@H]2O [Cmpd 5]
Kd [1]: 1.34 ± 0.3 nM | Kd [2]: 1.23 ± 0.14 nM

O[C@@H]1[C@H](O)[C@@H]2C[C@@H]2[C@H]1n1cnc2c(NCC(c3ccccc3)c3ccccc3)nc(C#Cc3ccccc3Cl)nc21 [Cmpd 15]
Kd [1]: 140 ± 30 nM

CNC(=O)C12CC1C(n1cnc3c(NCc4cccc(Cl)c4)nc(C#Cc4cccc(S(=O)(=O)O)c4)nc31)C(O)C2O (stereo not shown) [Cmpd 7]
Kd [2]: 11.3 ± 1.9 nM | Kd [3]: 1.9 ± 0.03 nM

CCNc1nc(C#Cc2ccccc2)nc2c1ncn2[C@H]1[C@H](O)[C@H](O)[C@@H]2C[C@@H]21 [Cmpd 9]
Kd [1]: 5.02 ± 2.19 nM | Kd [2]: 1480 ± 170 nM

O[C@@H]1[C@H](O)[C@@H]2C[C@@H]2[C@H]1n1cnc2c(NCc3cccc(Cl)c3)nc(C#Cc3ccc(-c4ccccc4)cc3)nc21 [Cmpd 13]
Kd [1]: 54 ± 7 nM | Kd [4]: 1110 ± 220 nM

CNc1nc(C#Cc2ccccc2)nc2c1ncn2[C@H]1[C@H](O)[C@H](O)[C@@H]2C[C@@H]21 [Cmpd 8]
Kd [1]: 5.48 ± 1.23 nM | Kd [4]: 3800 ± 780 nM | Kd [2]: 1530 ± 240 nM

CCNc1nc(C#Cc2ccccc2Cl)nc2c1ncn2[C@H]1[C@H](O)[C@H](O)[C@@H]2C[C@@H]21 [Cmpd 10]
Kd [1]: 5.8 ± 2.08 nM

O[C@@H]1[C@H](O)[C@@H]2C[C@@H]2[C@H]1n1cnc2c(NCc3cccc(Cl)c3)nc(C#Cc3ccccc3)nc21 [Cmpd 11]
Kd [5]: 680 ± 170 nM

CNC(=O)C12CC1C(n1cnc3c(NCCc4ccccc4)nc(C#Cc4ccccc4)nc31)C(O)C2O (stereo not shown) [Cmpd 17]
Kd [2]: 8.75 ± 2.12 nM | Kd [3]: 1.23 ± 0.57 nM

CCNC(=O)C1OC(n2cnc3c(N)nc(NCCc4ccc(CCC(=O)O)cc4)nc32)C(O)C1O (stereo not shown) [Cmpd 18]
Kd [2]: 71.1 ± 13 nM

O=S(=O)(O)c1ccc(CCNc2nc(C#Cc3ccccc3)nc3c2ncn3[C@H]2[C@H](O)[C@H](O)[C@@H]3C[C@@H]32)cc1 [Cmpd 16]
Kd [2]: 3920 ± 1190 nM | Kd [3]: 30.2 ± 4.3 nM
